Some of the results follow. At the low end of the ranking the order means little.
Target: GST-SBP-SLBP (stem-loop binding protein) (UniProt Q14493)
Assay: targeted RNA Bind-n-Seq;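 also: DESeq read counts versus GST-SBP nonspecific binding control pulldown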
Conditions: RBNS binding buffer: 25 mM Tris pH 7.5, 150 mM KCl, 3 mM MgCl2, 0.1% Tween, 0.5 mg/mL BSA, 1 mM DTT; 27 nM protein, 750 pM RNA pool; temperature not stated; high values mean tight binding

| Sequence | binding signal (log2 fold change) |
| --- | --- |
| GGUCACGUCUCAAUCAACUCAAUCGAGGGGGGGAAAACCCCUUUACCCUCAUCCUCAACAGCUCGCAGUCAAG | -0.0574 |
| GGUCACGUCUCAAUCAACUCAUUCUCCAGGGAAAUCCCUGGUAUACUCAACAGCUCGCAGUCAAG | -0.0596 |
| GGUCACGUCUCAAUCAACUCUAUGGAGGGGGGGAAAACCCCUUUACCCUCAAUCUCAACAGCUCGCAGUCAAG | 0.0189 |
| GGUCACGUCUCAAUCAACUCAUCUCCCAGGGAAACCCCUGGCUAUUUCAACAGCUCGCAGUCAAG | -0.131 |
| GGUCACGUCUCAAUCAACUCUAAAGAGGGGGGGAAAACCCCUUUACCCUCACUAUCAACAGCUCGCAGUCAAG | -0.214 |
| GGUCACGUCUCAAUCAACUCUAUCUCAGGAGUUUACUCCUGCUUUUUCAACAGCUCGCAGUCAAG | 0.0698 |
| GGUCACGUCUCAAUCAACUCUAUUCCCAGGGAAACCCCUGGUUUACUCAACAGCUCGCAGUCAAG | 0.0996 |
| GGUCACGUCUCAAUCAACUCUUAAGAGGGGGGGAAAACCCCUUUACCCUCAACGUCAACAGCUCGCAGUCAAG | 0.385 |
| GGUCACGUCUCAAUCAACUCUAUCCCAGGAGUUUUCUCCUGCAUACUCAACAGCUCGCAGUCAAG | -0.0205 |
| GGUCACGUCUCAAUCAACUCACACGAGGGGGGGAAAACCCCUUUACCCUCUACCUCAACAGCUCGCAGUCAAG | 0.472 |
| GGUCACGUCUCAAUCAACUCUAAAGAGGGGGGGAAAACCCCUUUGCCCUCAUCAUCAACAGCUCGCAGUCAAG | 0.172 |
| GGUCACGUCUCAAUCAACUCAACGGAGGGGGGGAAAACCCCUUUACCCUCAACAUCAACAGCUCGCAGUCAAG | 0.308 |
| GGUCACGUCUCAAUCAACUCAUCUUCCAGGGAAAGCCCUGGUAUACUCAACAGCUCGCAGUCAAG | 0.00493 |
| GGUCACGUCUCAAUCAACUCUAUUCCAGGAGUUUACUCCUGUUUACUCAACAGCUCGCAGUCAAG | -0.147 |
| GGUCACGUCUCAAUCAACUCUUCUCCAGGAGUUUUCUCCUGCUUACUCAACAGCUCGCAGUCAAG | 0.142 |
| GGUCACGUCUCAAUCAACUCAAUUCCCAGGGAAACCCCUGGCAUACUCAACAGCUCGCAGUCAAG | -0.304 |
| GGUCACGUCUCAAUCAACUCAUCCCCAGGAGUUUCCUCCUGCUUAUUCAACAGCUCGCAGUCAAG | 0.142 |
| GGUCACGUCUCAAUCAACUCAGUCUCCAGGGAAACCCCUGGUUUAUUCAACAGCUCGCAGUCAAG | 0.458 |
| GGUCACGUCUCAAUCAACUCAUCGUCCAGGGAAAUCCCUGGCAAAUUCAACAGCUCGCAGUCAAG | -0.168 |
| GGUCACGUCUCAAUCAACUCAACUCCAGGAGUUUUCUCCUGCAAUCUCAACAGCUCGCAGUCAAG | 0.0107 |
| GGUCACGUCUCAAUCAACUCUUCCUCCAGGGAAACCCCUGGCUUAUUCAACAGCUCGCAGUCAAG | -0.0269 |
| GGUCACGUCUCAAUCAACUCUUCCCCCAGGGAAAACCCUGGUUAUCUCAACAGCUCGCAGUCAAG | -0.0464 |
| GGUCACGUCUCAAUCAACUCUUUUUCCAGGGAAAGCCCUGGUAGUCUCAACAGCUCGCAGUCAAG | -0.207 |
| GGUCACGUCUCAAUCAACUCAAUCCCAGGAGUUUCCUCCUGUUUUUUCAACAGCUCGCAGUCAAG | 0.312 |

| Sequence | binding signal (log2 fold change) |
| --- | --- |
| GGUCACGUCUCAAUCAACUCAUCCUCCAGGGAAACCCCUGGCUUUUUCAACAGCUCGCAGUCAAG | -0.0194 |
| GGUCACGUCUCAAUCAACUCUUCUCCAGGAGUUUACUCCUGUAAAUUCAACAGCUCGCAGUCAAG | 0.064 |
| GGUCACGUCUCAAUCAACUCUCCGGAGGGGGGGAAAACCCCUUUACCCUCAUUAUCAACAGCUCGCAGUCAAG | -0.313 |
| GGUCACGUCUCAAUCAACUCAGUUCCAGGAGUUUACUCCUGCAUAUUCAACAGCUCGCAGUCAAG | -0.265 |
| GGUCACGUCUCAAUCAACUCAUAGGAGGGGGGGAAAACCCCUUUACCCUCAUCGUCAACAGCUCGCAGUCAAG | 0.28 |
| GGUCACGUCUCAAUCAACUCUAUCUCCAGGGAAAUCCCUGGCUAAUUCAACAGCUCGCAGUCAAG | 0.124 |
| GGUCACGUCUCAAUCAACUCAACUCCCAGGGAAAUCCCUGGUAAACUCAACAGCUCGCAGUCAAG | -0.0462 |
| GGUCACGUCUCAAUCAACUCAUUCUCCAGGGAAAGCCCUGGCUUAGUCAACAGCUCGCAGUCAAG | 0.106 |
| GGUCACGUCUCAAUCAACUCCCAAGAGGGGGGGAAAACCCCUUUACCCUCCCAUUCAACAGCUCGCAGUCAAG | 0.0861 |
| GGUCACGUCUCAAUCAACUCUAUCCCCAGGGAAAUCCCUGGUUUAUUCAACAGCUCGCAGUCAAG | -0.329 |
| GGUCACGUCUCAAUCAACUCAACGCCAGGAGUUUUCUCCUGUAAAUUCAACAGCUCGCAGUCAAG | 0.0987 |
| GGUCACGUCUCAAUCAACUCUUUCCCAGGAGUUUACUCCUGUAUACUCAACAGCUCGCAGUCAAG | 0.0263 |
| GGUCACGUCUCAAUCAACUCAUUUUCAGGAGUUUUCUCCUGCUUUGUCAACAGCUCGCAGUCAAG | 0.0906 |
| GGUCACGUCUCAAUCAACUCAUUCUCCAGGGAAAUCCCUGGUUUUCUCAACAGCUCGCAGUCAAG | -0.283 |
| GGUCACGUCUCAAUCAACUCAUCCUCCAGGGAAACCCCUGGUAUAUUCAACAGCUCGCAGUCAAG | -0.0551 |
| GGUCACGUCUCAAUCAACUCCAAAGAGGGGGGGAAAACCCCUUUGCCCUCAUCCUCAACAGCUCGCAGUCAAG | -0.398 |
| GGUCACGUCUCAAUCAACUCAUUUCCCAGGGAAAUCCCUGGUUUUUUCAACAGCUCGCAGUCAAG | -0.0723 |
| GGUCACGUCUCAAUCAACUCCAUCGAGGGGGGGAAAACCCCUUUACCCUCAAUAUCAACAGCUCGCAGUCAAG | 0.429 |
| GGUCACGUCUCAAUCAACUCUAUAGAGGGGGGGAAAACCCCUUUACCCUCAAAAUCAACAGCUCGCAGUCAAG | 0.178 |
| GGUCACGUCUCAAUCAACUCAAUUCCCAGGGAAACCCCUGGCAUUUUCAACAGCUCGCAGUCAAG | 0.0467 |
| GGUCACGUCUCAAUCAACUCUAUCUCCAGGGAAAGCCCUGGCUAUCUCAACAGCUCGCAGUCAAG | -0.0753 |
| GGUCACGUCUCAAUCAACUCUAUCCCCAGGGAAACCCCUGGUUAUUUCAACAGCUCGCAGUCAAG | 0.0533 |
| GGUCACGUCUCAAUCAACUCAUUCCCAGGAGUUUACUCCUGUUAAUUCAACAGCUCGCAGUCAAG | -0.244 |
